Test results taken from PubChem BioAssay AID485281 (National Center for Advancing Translational Sciences (NCATS), 2010).
The whole screen tested about 350,000 compounds, of which about 260 (0.074%) were called active. The inconclusive results got no clear call from the source; some entries with a clear call stand among them for comparison. The call rests on the fitted dose curve; in most records, active means well fitted inhibition curve with a large enough effect; inconclusive means small, poorly fitted or top-dose-only effect; inactive means no such curve, though single readings can be large or run the other way. Potencies of inconclusive entries are doubtful fits and often do not repeat.

Biological target: Ferritin light chain (Equus caballus) (UniProt P02791)
Assay: qHTS Assay for Identification of Novel General Anesthetics; further: nearly all actives have a fitted effect of over 20% in size
Conditions: apoferritin/1-aminoanthracene competitive binding, fluorescence; activity change, negative = displacement: at 77.5 µM (top of the series)
Summary of the method: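 Horse-spleen apoferritin (10 uM) in 50% saturated 1-aminoanthracene in PBS was incubated 10 min at room temperature with compound. Fluorescence (ex 380, em 535 nm) was normalized to free and bound 1-AMA, with concentration-response fitted by a four-parameter Hill equation.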
On the % scale 0 is the no-effect control and ±100 the full control effect; potency means the concentration at half of the fitted maximal effect; tags describe the fitted curve by direction and shape.

Chain of UniProt P02791 (P02791 whole entry, looked up): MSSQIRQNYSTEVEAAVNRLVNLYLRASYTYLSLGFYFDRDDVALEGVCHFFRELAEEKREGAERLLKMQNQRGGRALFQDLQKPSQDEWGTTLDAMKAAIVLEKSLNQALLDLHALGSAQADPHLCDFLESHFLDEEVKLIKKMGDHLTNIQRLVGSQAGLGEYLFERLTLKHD

Row | SMILES | Potency | activity change, negative = displacement
1 | O=C(N1CCN=C1SCc1cccnc1)C12CC3CC(CC(C3)C1)C2 | inconclusive: 17.8 µM [inhibitor, partial curve] | 
2 | Cc1cccc(OCCn2ccnc2)c1C | inconclusive: 56.2 µM [inhibitor, single point] | 
3 | Clc1ccc(/C=C/c2nc3ccccc3[nH]2)cc1 |  | inactive: -11.9%
4 | Cc1ccc2c(c1)N(C(=O)CCC(=O)NC1CCCCCC1)CCO2 | inconclusive: 22.4 µM [inhibitor, partial curve] | 
5 | CC(=O)Nc1sc2c(c1C(c1ccncc1)N1CCOCC1)CCCC2 (stereo unspecified) |  | inactive: -1.72%
6 | Cc1onc(-c2ccccc2Cl)c1C(O)c1ccc(F)cc1 (stereo unspecified) |  | inactive: -22.3%
7 | O=C1C(=O)c2c(C(=O)c3ccccc3)coc2-c2ccccc21 |  | inactive: -20.5%
8 | c1ccc(Nc2c(-c3c[nH]c4ccccc34)nc3ccccn23)cc1 |  | inactive: 1.51%
9 | Cc1ccc(C)c(NC(=S)NNc2ccc(F)cc2F)c1 |  | inactive: -3.63%
10 | O=C(Cn1nc(-c2cccs2)ccc1=O)Nc1ccc(Br)cc1 | inconclusive: 28.2 µM [inhibitor, partial curve] | 
11 | CCC(C)(C)n1nnnc1CN1CCc2ccccc21 | inconclusive: 31.6 µM [inhibitor, partial curve] | 
12 | CCOC(=O)CC(=O)CSc1ncnc2c1cnn2-c1ccccc1 | inconclusive: 25.1 µM [inhibitor, partial curve] | 
13 | COc1cccc(CN(C)C(=O)c2ccc(N3CCCC3)c([N+](=O)[O-])c2)c1 | inconclusive: 35.5 µM [inhibitor, partial curve] | 
14 | COc1cc(C(=O)NCC(c2cccs2)S(=O)(=O)c2ccc(F)cc2)cc(OC)c1OC (stereo unspecified) |  | inactive: 48.2%
15 | Cc1ccccc1-c1noc(-c2ccc(O)cc2)n1 | inconclusive: 44.7 µM [inhibitor, partial curve] | 
16 | CCC(=NCc1ccccc1)C1=C(O)C(C(=O)OC)C(C)(C)CC1=O (stereo unspecified) |  | inactive: -11.9%
17 | CC(N=Cc1nc(-c2ccccc2)oc1O)c1ccccc1 (stereo unspecified) | inconclusive: 31.6 µM [inhibitor, partial curve] | 
18 | CCN1CC2=C(OC(N)=C(C#N)C2c2cccs2)/C(=C\c2cccs2)C1 (stereo unspecified) | inconclusive: 22.4 µM [inhibitor, partial curve] | 
19 | Cc1noc(C)c1S(=O)(=O)NCCN1CCN(c2ccccc2)CC1 |  | inactive: -5.74%
20 | Brc1ccccc1-c1nnc(COc2cccc3cccnc23)o1 |  | inactive: -22.3%
21 | CCN(c1ccccc1)P(=O)(Nc1ccccc1)Nc1ccccc1 |  | inactive: -17.9%
22 | CC(C)Cc1ccc(-c2cc(=O)[nH][nH]2)cc1 | inconclusive: 22.4 µM [inhibitor, partial curve] | 
23 | CC(C(=O)NC1C=CS(=O)(=O)C1)N1C(=O)/C(=C/c2cccc(Cl)c2)SC1=S (stereo unspecified) | inconclusive: 25.1 µM [inhibitor, partial curve] | 

Row | SMILES | Potency | activity change, negative = displacement
24 | CCOC(=O)C1=C(C)N=c2s/c(=C3/C(=O)Nc4ccccc43)c(=O)n2C1c1ccc(C)cc1 (stereo unspecified) | inconclusive: 44.7 µM [inhibitor, single point] | 
25 | CC1=CC(C)(C)N2C(=O)C(=O)c3cc(OC(=O)c4ccco4)cc1c32 | inconclusive: 17.8 µM [inhibitor, partial curve] | 
26 | O=S(=O)(NCc1ccc(Cl)cc1)c1cnc[nH]1 |  | inactive: -3.12%
27 | Fc1ccc(Nc2c3c(nc4ccccc24)CCC3)cc1 | inconclusive: 25.1 µM [inhibitor, single point] | 
28 | Cc1ccc2nc(/C(C#N)=C\c3ccc(N4CCCCC4)c([N+](=O)[O-])c3)[nH]c2c1 | inconclusive: 35.5 µM [inhibitor, partial curve] | 
29 | O=C(NCC1CCCN(C2Cc3ccccc3C2)C1)c1cccs1 (stereo unspecified) | inconclusive: 35.5 µM [inhibitor, single point] | 
30 | C=CCCCCCCCCCCC/C=C/C(O)COC(C)=O (stereo unspecified) | inconclusive: 31.6 µM [inhibitor, single point] | 
31 | O=C(COC(=O)c1cc(=O)[nH]c2ccccc12)c1ccccc1 | inconclusive: 15.8 µM [inhibitor, partial curve] | 
32 | O=C(CNC(=O)c1cccc(Br)c1)N/N=C/c1cn[nH]c1-c1ccccc1 | inconclusive: 35.5 µM [inhibitor, partial curve] | 
33 | CCOC(=O)c1ccc(NC(=O)CC2C(=O)OCCN2CC)cc1 (stereo unspecified) | inconclusive: 50.1 µM [inhibitor, single point] | 
34 | CCc1nc2oc3cc(OC)ccc3c(=O)c2c(=O)n1Cc1ccco1 | inconclusive: 20 µM [inhibitor, partial curve] | 
35 | Cn1ncc2c(Nc3cccc4ccccc34)ncnc21 | inconclusive: 25.1 µM [inhibitor, partial curve] | 
36 | COc1ccc(NC(=S)NNC(=S)Nc2cccc(C(F)(F)F)c2)cc1 | inconclusive: 50.1 µM [inhibitor, single point] | 
37 | CC(CC(=O)Nc1ncc([N+](=O)[O-])s1)c1ccccc1 (stereo unspecified) | active: 35.5 µM | 
38 | COC(=O)C/C(O)=C(/N=Nc1cccc(C(F)(F)F)c1)C(=O)OC | inconclusive: 31.6 µM [inhibitor, partial curve] | 
39 | COc1ccccc1C1CCN(Cc2ccc3ccccc3c2)CC1 |  | inactive: -10.6%
40 | Nc1c(C(=O)NCc2ccc3c(c2)OCO3)nnn1Cc1ccc(Br)cc1 | inconclusive: 25.1 µM [inhibitor, partial curve] | 
41 | COc1cccc(C(=O)Nc2cc(NC(=O)c3cccs3)ccc2C)c1 | inconclusive: 22.4 µM [inhibitor, single point] | 
42 | Cc1cc(C)n(CC2CC(=O)N(c3ccc(Cl)c(Cl)c3)C2=O)n1 (stereo unspecified) | inconclusive: 50.1 µM [inhibitor, single point] | 
43 | COC(=O)CSc1nc2c(c(-c3ccco3)c1C#N)CCCC2 | inconclusive: 39.8 µM [inhibitor, partial curve] | 
44 | O=C(Nc1sc2c(c1C(=O)NCc1ccco1)CCCC2)c1cc(=O)c2ccccc2o1 |  | inactive: 1.2%
45 | Cc1ccc(NC(=S)N2CCN(CCN3C(=O)c4cccc5cccc(c45)C3=O)CC2)cc1 | inconclusive: 12.6 µM [inhibitor, partial curve] | 
46 | CCc1ccc2nc(N(CCCN(C)C)C(=O)c3ccc(C(=O)c4ccccc4)cc3)sc2c1 | inconclusive: 22.4 µM [inhibitor, partial curve] | 
